# Reference: the supplement of paper PMC8728848
# The list shows a part of the results.
# B1: Clrb (Mus musculus) (protein)
# chain: ITGATKTEQIPVNKTYAACPQNWIGVENKCFYFSEYPSNWTFAQAFCMAQEAQLARFDNQDELNFLMRYKANFDSWIGLHRESSEHPWKWTDNTEYNNTIPIRGEERFAYLNNNGISSTRIYSLRMWICSKLNSYSLHCQTPFFPSGTKHHHHHHHHG
# What was measured:
# Assay in all cases: glycan array binding signal (z-score within array); higher = stronger binding
# Conditions in all cases: glycan notation: IUPAC condensed, linker removed
# [1] = target: Fuc(a1-2)[GalNAc(a1-3)]Gal(b1-4)Glc
# Outline: (§1)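 Negative Z-scores can be read as non-binding. The Z-score is calculated within each array and then averaged across arrays of one protein sequence at different concentrations or buffers and across linkers. Arrays, 3228 in all, were curated from the Consortium for Functional Glycomics database and kept only where the protein sequence was available.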
# [2] = target: Fuc(a1-2)[GalNAc(a1-3)]Gal(b1-4)GlcNAc
# Outline: as §1
# [3] = target: Fuc(a1-2)[GalNAc(a1-3)]Gal(b1-4)GlcNAc(b1-2)Man
# Outline: as §1
# [4] = target: Fuc(a1-2)[GalNAc(a1-3)]Gal(b1-4)GlcNAc(b1-2)Man(a1-3)[Fuc(a1-2)[GalNAc(a1-3)]Gal(b1-4)GlcNAc(b1-2)Man(a1-6)]Man(b1-4)GlcNAc(b1-4)GlcNAc
# Outline: as §1
# [5] = target: Fuc(a1-2)[GalNAc(a1-3)]Gal(b1-4)GlcNAc(b1-2)Man(a1-3)[Fuc(a1-2)[GalNAc(a1-3)]Gal(b1-4)GlcNAc(b1-2)Man(a1-6)]Man(b1-4)GlcNAc(b1-4)[Fuc(a1-6)]GlcNAc
# Outline: as §1
# [6] = target: Fuc(a1-2)[GalNAc(a1-3)]Gal(b1-4)GlcNAc(b1-3)Gal(b1-4)GlcNAc
# Outline: as §1
# [7] = target: Fuc(a1-2)[GalNAc(a1-3)]Gal(b1-4)GlcNAc(b1-3)Gal(b1-4)GlcNAc(b1-3)Gal(b1-4)GlcNAc
# Outline: as §1
# [8] = target: Fuc(a1-2)[GalNAc(a1-3)]Gal(b1-4)GlcNAc(b1-3)GalNAc
# Outline: as §1
# [9] = target: Fuc(a1-2)[GalNAc(a1-3)]Gal(b1-4)GlcNAc(b1-3)[Fuc(a1-2)[GalNAc(a1-3)]Gal(b1-4)GlcNAc(b1-6)]GalNAc
# Outline: as §1
# [10] = target: Fuc(a1-2)[GalNAc(a1-3)]Gal(b1-4)GlcNAc(b1-6)GalNAc
# Outline: as §1
# [11] = target: Fuc(a1-2)[GalNAc(a1-3)]Gal(b1-4)[Fuc(a1-3)]GlcNAc
# Outline: as §1
# [12] = target: Fuc(a1-2)[GalNAc(a1-3)]Gal(b1-4)[Fuc(a1-3)]GlcNAc(b1-3)GalNAc
# Outline: as §1
# [13] = target: Fuc(a1-2)[GalNAc(a1-4)]Gal(b1-4)GlcNAc
# Outline: as §1
# [14] = target: Fuc(a1-2)[GalNAc(b1-3)]Gal
# Outline: as §1
# [15] = target: Fuc(a1-3)GlcNAc
# Outline: as §1
# [16] = target: Fuc(a1-3)[Gal(b1-4)]Glc6S
# Outline: as §1
# [17] = target: Fuc(a1-3)[Gal(b1-4)]GlcNAc
# Outline: as §1
# [18] = target: Fuc(a1-3)[Gal(b1-4)]GlcNAc(b1-2)Man
# Outline: as §1
# [19] = target: Fuc(a1-3)[Gal(b1-4)]GlcNAc(b1-2)Man(a1-3)[Fuc(a1-3)[Gal(b1-4)]GlcNAc(b1-2)Man(a1-6)]Man(b1-4)GlcNAc(b1-4)GlcNAc
# Outline: as §1
# [20] = target: Fuc(a1-3)[Gal(b1-4)]GlcNAc(b1-2)Man(a1-3)[Fuc(a1-3)[Gal(b1-4)]GlcNAc(b1-2)Man(a1-6)]Man(b1-4)GlcNAc(b1-4)[Fuc(a1-6)]GlcNAc
# Outline: as §1
# [21] = target: Fuc(a1-3)[Gal(b1-4)]GlcNAc(b1-3)Gal(b1-3)[Fuc(a1-4)]GlcNAc
# Outline: as §1
# [22] = target: Fuc(a1-3)[Gal(b1-4)]GlcNAc(b1-3)Gal(b1-4)[Fuc(a1-3)]GlcNAc
# Outline: as §1
# [23] = target: Fuc(a1-3)[Gal(b1-4)]GlcNAc(b1-3)Gal(b1-4)[Fuc(a1-3)]GlcNAc(b1-3)Gal(b1-4)[Fuc(a1-3)]GlcNAc
# Outline: as §1
# [24] = target: Fuc(a1-3)[Gal(b1-4)]GlcNAc(b1-3)GalNAc
# Outline: as §1
# [25] = target: Fuc(a1-3)[Gal(b1-4)]GlcNAc(b1-6)GalNAc
# Outline: as §1
# [26] = target: Fuc(a1-3)[Gal(b1-4)]GlcNAc(b1-6)[Gal(b1-3)GlcNAc(b1-3)]Gal(b1-4)Glc
# Outline: as §1
# [27] = target: Fuc(a1-3)[Gal(b1-4)]GlcNAc6S
# Outline: as §1
# [28] = target: Fuc(a1-3)[Gal3S(b1-4)]Glc
# Outline: as §1
# [29] = target: Fuc(a1-3)[Gal3S(b1-4)]GlcNAc
# Outline: as §1
# [30] = target: Fuc(a1-3)[Gal3S(b1-4)]GlcNAc6S
# Outline: as §1
# [31] = target: Fuc(a1-3)[GalNAc(b1-4)]GlcNAc
# Outline: as §1
# [32] = target: Fuc(a1-3)[GalNAc(b1-4)]GlcNAc6S
# Outline: as §1
# [33] = target: Fuc(a1-4)GlcNAc
# Outline: as §1
# [34] = target: Fuc(b1-3)GlcNAc
# Outline: as §1
# [35] = target: Gal(a1-2)Gal
# Outline: as §1
# [36] = target: Gal(a1-3)Gal
# Outline: as §1
# [37] = target: Gal(a1-3)Gal(b1-3)GlcNAc
# Outline: as §1
binder,measurement,setting,value
B1,glycan array binding signal (z-score),[1],-0.353
same,glycan array binding signal (z-score),[2],2.14
same,glycan array binding signal (z-score),[3],-0.258
same,glycan array binding signal (z-score),[4],-0.491
same,glycan array binding signal (z-score),[5],-0.417
same,glycan array binding signal (z-score),[6],0.254
same,glycan array binding signal (z-score),[7],-0.215
same,glycan array binding signal (z-score),[8],-0.327
same,glycan array binding signal (z-score),[9],-0.374
same,glycan array binding signal (z-score),[10],0.23
same,glycan array binding signal (z-score),[11],-0.385
same,glycan array binding signal (z-score),[12],-0.299
same,glycan array binding signal (z-score),[13],1.88
same,glycan array binding signal (z-score),[14],-0.248
same,glycan array binding signal (z-score),[15],-0.352
same,glycan array binding signal (z-score),[16],-0.518
same,glycan array binding signal (z-score),[17],-0.373
same,glycan array binding signal (z-score),[18],-0.25
same,glycan array binding signal (z-score),[19],-0.413
same,glycan array binding signal (z-score),[20],-0.437
same,glycan array binding signal (z-score),[21],-0.381
same,glycan array binding signal (z-score),[22],-0.446
same,glycan array binding signal (z-score),[23],-0.41
same,glycan array binding signal (z-score),[24],-0.299
same,glycan array binding signal (z-score),[25],-0.162
same,glycan array binding signal (z-score),[26],-0.509
same,glycan array binding signal (z-score),[27],-0.295
same,glycan array binding signal (z-score),[28],-0.148
same,glycan array binding signal (z-score),[29],-0.326
same,glycan array binding signal (z-score),[30],-0.277
same,glycan array binding signal (z-score),[31],1.85
same,glycan array binding signal (z-score),[32],-0.315
same,glycan array binding signal (z-score),[33],-0.357
same,glycan array binding signal (z-score),[34],-0.294
same,glycan array binding signal (z-score),[35],-0.306
same,glycan array binding signal (z-score),[36],-0.295
same,glycan array binding signal (z-score),[37],-0.098
